Test results reported in PubChem BioAssay AID1508623 (National Center for Advancing Translational Sciences (NCATS), 2021).
The whole screen tested about 48,000 compounds, of which about 450 (0.94%) were called active. Inconclusive results (about 19%) are left out. Calls come from the whole dose curve; as a rule, active = well fitted inhibition curve with a large enough effect; inconclusive = small, poorly fitted or top-dose-only effect; inactive = no such curve, though single readings can be large or run the other way. This is one part of the list.

Test: Primary qHTS for Identification of Small Molecule Inhibitors of Huntingtin Promoter Activity; note: nearly all actives have a fitted effect of over 50% in size
Conditions: HEK293 HTT promoter firefly luciferase reporter (activity 0% = vehicle and -100% = no light), 24 h; activity change, negative = inhibition: at the top concentration
Summary of the method: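 Quantitative HTS used concentration series of up to 57.5 uM final on HEK293 luciferase reporter cells, 24 h at 37 degrees C. Readout was Dual-Glo firefly luminescence.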

SMILES | activity change, negative = inhibition
CCSc1nnc(NC(=O)c2cccn(Cc3ccccc3Cl)c2=O)s1 | inactive: 7.46%
CCOc1ccccc1NC(=O)c1cccn(Cc2ccccc2C)c1=O | inactive: -10.2%
O=C1CN2CCOC2(c2ccccc2Cl)c2cc(Cl)ccc2N1 (configuration not stated) | inactive: -9.53%
COc1ccc(C(c2c(O)c3ccccc3oc2=O)c2c(C)n(C)n(-c3ccccc3)c2=O)cc1 (configuration not stated) | inactive: -16.9%
Clc1ccc(CCC(Cn2ccnc2)Sc2c(Cl)cccc2Cl)cc1 (configuration not stated) | inactive: -24.1%
CCC(=O)C(CCN(C)C)(c1ccccc1)c1ccccc1 | inactive: -4.46%
CC(=O)c1cccc(NC(=O)c2cccn(Cc3cccc(C)c3)c2=O)c1 | inactive: -20.7%
O=C(O)COc1ccccc1 | inactive: 45.6%
CC(C)NC(C)C | inactive: 9.95%
O=c1[nH]c2ccccc2n1C1CCNCC1 | inactive: 4.38%
NC(=O)CN1CCCC1=O | inactive: -3.62%
ClCCN1CCCC1 | inactive: 3.02%
N[C@@H](Cc1ccc(Oc2cc(I)c(O)c(I)c2)c(I)c1)C(=O)O | inactive: 1.02%
COC(=O)C(Cl)C(=O)OC | inactive: -4.36%
Oc1ccc(Cl)cc1 | inactive: 12.3%
CC(C)c1c(CN(C)C(C)Cc2ccccc2)n(C)n(-c2ccccc2)c1=O (configuration not stated) | inactive: 5.22%
COc1ccc(NC(=O)CN2C(=O)C(C)N=C(c3ccccc3)c3ccccc32)cc1OC (configuration not stated) | inactive: 4.9%
Cc1ccc(Cn2cccc(C(=O)Nc3nc4ccc(C)cc4s3)c2=O)cc1 | inactive: -35.4%
O=P1(NCCCl)OCCCN1CCCl (configuration not stated) | inactive
Cc1ccc(OCC(=O)Nc2ccc(Cl)cc2C(=O)c2ccccc2)c(Br)c1 | inactive: 12%
O=S(=O)(c1ccc(Cl)cc1)c1ccc(Cl)cc1 | inactive: -7.65% [at 116 µM]
O=C1CCC[C@@H]2[C@H]3CCCN4CCC[C@@H](CN12)[C@@H]34 | inactive: 10.3%
O=C(Nc1ccon1)c1cccn(Cc2cccc([N+](=O)[O-])c2)c1=O | inactive: -14.4%
O=C(Nc1ccccc1)N(Cc1ccc2c(c1)OCO2)C1CCN(Cc2ccccc2)CC1 | inactive: -15.9%
Cc1cccc(C)c1NC1=NCCCS1 | inactive: -4.03%
O=C(Nc1ccc2c(c1)OCO2)c1cccn(Cc2ccccc2)c1=O | inactive: 15.4%

SMILES | activity change, negative = inhibition
CCOC(=O)C1(c2ccccc2)CCN(CCc2ccc(N)cc2)CC1 | inactive: -5.79%
CN1C(=O)COc2c(C(=O)NC3CN4CCC3CC4)cc(Cl)cc21 (configuration not stated) | inactive
Cc1ccc(S(=O)(=O)N[C@@H](CCCCN)C(=O)CCl)cc1 | inactive: 10%
O=C(Oc1ccc([N+](=O)[O-])cc1)N1CCC(C(O)(c2ccc3c(c2)OCO3)c2ccc3c(c2)OCO3)CC1 | inactive: -6.54%
O=C1CN=C(c2ccccc2)c2cc([N+](=O)[O-])ccc2N1 | inactive: -5.21%
CCOc1ccc2nc(NC(=O)c3cccn(Cc4ccc(C)cc4)c3=O)sc2c1 | inactive: -35.2%
CC[N+]1(CCOC(=O)C(O)(c2ccccc2)c2ccccc2)CCCCC1 | inactive: -3.5%
O=C(Nc1ccc2c(c1)OCCO2)c1cccn(Cc2ccccc2)c1=O | inactive: -15.6%
Cc1c(Cl)c(=O)oc2cc(OP(=O)(OCCCl)OCCCl)ccc12 | inactive: -4.02%
Cc1ccc(-c2nc(CN3C(=O)CN=C(c4ccccc4Cl)c4cc(Cl)ccc43)c(C)o2)cc1 | inactive: -39%
C[N+]1(C)[C@@H]2CC[C@H]1CC(OC(=O)C(CO)c1ccccc1)C2 (some centres not stated) | inactive: 2.5%
Cc1cccc(Cn2cccc(C(=O)Nc3nnc(C)s3)c2=O)c1 | inactive: -1.05%
Nc1ccccc1 | inactive: 15.5%
O=C1CC(c2ccc(C(F)(F)F)cc2)c2c(c3ccccc3oc2=O)O1 (configuration not stated) | inactive: -9.16%
Cc1cc(SCc2sc(-c3ccc(C(F)(F)F)c(F)c3)nc2C)ccc1OCC(=O)O | inactive: 16.7%
CCc1ccc(C2CCNCC2)cc1 | inactive: -6.01%
Clc1ccccc1C(c1ccccc1)(c1ccccc1)n1cccn1 | inactive: -0.543%
CCO/N=C(\CC)C1=C(O)CC(c2c(C)cc(C)cc2C)CC1=O (configuration not stated) | inactive: -3.45% [at 116 µM]
Clc1ccc(C(OCCN2CCCCC2)c2ccccc2)cc1 (configuration not stated) | inactive: -6.57%
CCCSP(=O)(OCC)SCCC | inactive: 7.16% [at 116 µM]
CCOCCOC(C)=O | inactive: 10.9% [at 116 µM]
CC[N+](CC)(CC)CC | inactive: 5%
COc1cc2[nH]c(=O)n(-c3ccc(C)cc3)c(=O)c2cc1OC | inactive: 5.21%
CCC(COC(=O)c1cc(OC)c(OC)c(OC)c1)(c1ccccc1)N(C)C (configuration not stated) | inactive: 4.71%
CCN(C(C)=O)c1cccc(-c2ccnc3c(C#N)cnn23)c1 | inactive: 3.35%
O=C(Nc1ccc(Br)cc1C(=O)c1ccccc1Cl)c1ccc(Br)cc1 | inactive: -11.6% [at 11.5 µM]

SMILES | activity change, negative = inhibition
COc1ccccc1-c1nn2c(=O)cc(CN3CCN(C(=O)COc4ccccc4Cl)CC3)nc2s1 | inactive: -20.4%
CN(C)NC(=O)CCC(=O)O | inactive: -9.37%
O=[N+]([O-])c1ccc([As](=O)(O)O)cc1 | inactive: 3.04%
O=C1c2ccccc2C(=O)c2ccccc21 | inactive: -2.56% [at 25.2 µM]
Cc1ccc2c(=O)n(-c3cccc(Cl)c3)c(=O)[nH]c2c1 | inactive: -0.185%
Cc1ccc2nc(NC(=O)c3cccn(Cc4ccccc4F)c3=O)sc2c1 | inactive: 4.18%
C1CCC(NC2CCCCC2)CC1 | inactive: -1.25%
CCC1(c2cccc(O)c2)CCCCN(C)C1 (configuration not stated) | inactive: -6.86%
C[C@@H]1CC[C@H]2[C@@H](C)C(=O)O[C@@H]3O[C@@]4(C)CC[C@@H]1[C@]32OO4 | inactive: -10.7%
CC(=O)OCC1=C(C(=O)O)N2C(=O)[C@@H](N)[C@@H]2SC1 | inactive: -14%
O=c1c2ccccc2nc(/C=C/c2cccc3ccccc23)n1-c1ccc(Cl)cc1 | inactive: -27.3%
CCC12CN3CC(CC)(CN(C1)C3c1c(C)[nH]c(=O)[nH]c1=O)C2=O (configuration not stated) | inactive: -9.9%
CC(C)Oc1cccc(NC(=O)c2ccccc2C(F)(F)F)c1 | inactive: -21.2% [at 116 µM]
COc1cc(C[C@@H](C)N)c(OC)cc1Br | inactive: -0.042% [at 116 µM]
COc1cc(OC)cc(C(=O)Nc2ccc(Cl)cc2C(=O)c2ccccc2Cl)c1 | inactive: -0.568%
CC(C)(C)NCC(O)c1ccccc1Cl (configuration not stated) | inactive: 4.71%
Oc1ccc([C@H]2CNCc3c2ccc(O)c3O)cc1O | inactive: 0.341%
Cc1ccc(OCC(=O)N2CCN(Cc3ccc(F)cc3)CC2)cc1 | inactive: -26%
CC(C)C[C@H](CN)CC(=O)O | inactive: -7.34%
CN(C)C(=S)SSC(=S)N(C)C | inactive: -28.3%
c1cnc2c(c1)ncn2C1CCNCC1 | inactive: 0%
COc1cccc(-n2c(/C=C\c3ccc(Cl)cc3)nc3ccccc3c2=O)c1 | inactive: -2.02%
Cc1ccc(C(C)(C)C)c(OCC(=O)Nc2ccc(Cl)cc2C(=O)c2ccccc2)c1 | inactive: 5.65%
COc1ccc2c(c1)[C@]13CCCCC1C(C2)N(C)CC3 (some centres not stated) | inactive: 10.6%
Sc1ccccc1Cl | inactive: -1.64%
